Measurements: the supplement of paper PMC8728848
The other results are listed elsewhere or left out.

Key:
Experiment in all cases: glycan array binding signal (z-score within array); higher = stronger binding
Details in all cases: glycan notation: IUPAC condensed, linker removed
[1] = target: Neu5Ac(a2-3)GalNAc(b1-4)GlcNAc
Summary of the method: (§1)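 Arrays were curated from the Consortium for Functional Glycomics database, 3228 in total, and kept only where the protein sequence was available. Binding is expressed as a within-array Z-score. This score was averaged across arrays of the same protein sequence at different concentrations or buffers and across linkers, and negative values can be read as non-binding.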

[2] = target: Neu5Ac(a2-3)[GalNAc(b1-4)]Gal(b1-4)Glc
Summary of the method: as §1

[3] = target: Neu5Ac(a2-3)[GalNAc(b1-4)]Gal(b1-4)GlcNAc
Summary of the method: as §1

[4] = target: Neu5Ac(a2-3)[GalNAc(b1-4)]Gal(b1-4)GlcNAc(b1-3)GalNAc
Summary of the method: as §1

[5] = target: Neu5Ac(a2-3)[Neu5Ac(a2-6)]GalNAc
Summary of the method: as §1

Neu5Ac(a2-6)Gal = target: Neu5Ac(a2-6)Gal
Summary of the method: as §1

[6] = target: Neu5Ac(a2-6)Gal(b1-3)GlcNAc(b1-3)[Gal(b1-4)GlcNAc(b1-6)]Gal(b1-4)Glc
Summary of the method: as §1

Neu5Ac(a2-6)Gal(b1-4)Glc = target: Neu5Ac(a2-6)Gal(b1-4)Glc
Summary of the method: as §1

[7] = target: Neu5Ac(a2-6)Gal(b1-4)GlcNAc
Summary of the method: as §1

[8] = target: Neu5Ac(a2-6)Gal(b1-4)GlcNAc(b1-2)Man
Summary of the method: as §1

[9] = target: Neu5Ac(a2-6)Gal(b1-4)GlcNAc(b1-2)Man(a1-3)Man(b1-4)GlcNAc(b1-4)GlcNAc
Summary of the method: as §1

[10] = target: Neu5Ac(a2-6)Gal(b1-4)GlcNAc(b1-2)Man(a1-3)[Gal(b1-4)GlcNAc(b1-2)Man(a1-6)]Man(b1-4)GlcNAc(b1-4)GlcNAc
Summary of the method: as §1

[11] = target: Neu5Ac(a2-6)Gal(b1-4)GlcNAc(b1-2)Man(a1-3)[GlcNAc(b1-2)Man(a1-6)]Man(b1-4)GlcNAc(b1-4)GlcNAc
Summary of the method: as §1

[12] = target: Neu5Ac(a2-6)Gal(b1-4)GlcNAc(b1-2)Man(a1-3)[GlcNAc(b1-4)][Neu5Ac(a2-6)Gal(b1-4)GlcNAc(b1-2)Man(a1-6)]Man(b1-4)GlcNAc(b1-4)GlcNAc
Summary of the method: as §1

[13] = target: Neu5Ac(a2-6)Gal(b1-4)GlcNAc(b1-2)Man(a1-3)[Man(a1-6)]Man(b1-4)GlcNAc(b1-4)GlcNAc
Summary of the method: as §1

[14] = target: Neu5Ac(a2-6)Gal(b1-4)GlcNAc(b1-2)Man(a1-3)[Neu5Ac(a2-3)Gal(b1-4)GlcNAc(b1-2)Man(a1-6)]Man(b1-4)GlcNAc(b1-4)GlcNAc
Summary of the method: as §1

[15] = target: Neu5Ac(a2-6)Gal(b1-4)GlcNAc(b1-2)Man(a1-3)[Neu5Ac(a2-6)Gal(b1-4)GlcNAc(b1-2)Man(a1-6)]Man(b1-4)GlcNAc(b1-4)GlcNAc
Summary of the method: as §1

[16] = target: Neu5Ac(a2-6)Gal(b1-4)GlcNAc(b1-2)Man(a1-3)[Neu5Ac(a2-6)Gal(b1-4)GlcNAc(b1-2)Man(a1-6)]Man(b1-4)GlcNAc(b1-4)[Fuc(a1-6)]GlcNAc
Summary of the method: as §1

[17] = target: Neu5Ac(a2-6)Gal(b1-4)GlcNAc(b1-2)Man(a1-6)Man(b1-4)GlcNAc(b1-4)GlcNAc
Summary of the method: as §1

[18] = target: Neu5Ac(a2-6)Gal(b1-4)GlcNAc(b1-2)Man(a1-6)[Gal(b1-4)GlcNAc(b1-2)Man(a1-3)]Man(b1-4)GlcNAc(b1-4)GlcNAc
Summary of the method: as §1

[19] = target: Neu5Ac(a2-6)Gal(b1-4)GlcNAc(b1-2)Man(a1-6)[GlcNAc(b1-2)Man(a1-3)]Man(b1-4)GlcNAc(b1-4)GlcNAc
Summary of the method: as §1

[20] = target: Neu5Ac(a2-6)Gal(b1-4)GlcNAc(b1-2)Man(a1-6)[Man(a1-3)]Man(b1-4)GlcNAc(b1-4)GlcNAc
Summary of the method: as §1

[21] = target: Neu5Ac(a2-6)Gal(b1-4)GlcNAc(b1-2)[Neu5Ac(a2-6)Gal(b1-4)GlcNAc(b1-4)]Man(a1-3)[GlcNAc(b1-4)][Neu5Ac(a2-6)Gal(b1-4)GlcNAc(b1-2)[Neu5Ac(a2-6)Gal(b1-4)GlcNAc(b1-6)]Man(a1-6)]Man(b1-4)GlcNAc(b1-4)GlcNAc
Summary of the method: as §1

[22] = target: Neu5Ac(a2-6)Gal(b1-4)GlcNAc(b1-2)[Neu5Ac(a2-6)Gal(b1-4)GlcNAc(b1-4)]Man(a1-3)[GlcNAc(b1-4)][Neu5Ac(a2-6)Gal(b1-4)GlcNAc(b1-4)Man(a1-6)]Man(b1-4)GlcNAc(b1-4)GlcNAc
Summary of the method: as §1

[23] = target: Neu5Ac(a2-6)Gal(b1-4)GlcNAc(b1-2)[Neu5Ac(a2-6)Gal(b1-4)GlcNAc(b1-6)]Man(a1-6)[Neu5Ac(a2-6)Gal(b1-4)GlcNAc(b1-2)Man(a1-3)][GlcNAc(b1-4)]Man(b1-4)GlcNAc(b1-4)GlcNAc
Summary of the method: as §1

[24] = target: Neu5Ac(a2-6)Gal(b1-4)GlcNAc(b1-3)Gal(b1-3)GlcNAc
Summary of the method: as §1

[25] = target: Neu5Ac(a2-6)Gal(b1-4)GlcNAc(b1-3)Gal(b1-4)GlcNAc
Summary of the method: as §1

[26] = target: Neu5Ac(a2-6)Gal(b1-4)GlcNAc(b1-3)Gal(b1-4)GlcNAc(b1-2)Man(a1-3)[Neu5Ac(a2-6)Gal(b1-4)GlcNAc(b1-3)Gal(b1-4)GlcNAc(b1-2)Man(a1-6)]GalNAc
Summary of the method: as §1

[27] = target: Neu5Ac(a2-6)Gal(b1-4)GlcNAc(b1-3)Gal(b1-4)GlcNAc(b1-3)Gal(b1-4)GlcNAc
Summary of the method: as §1

[28] = target: Neu5Ac(a2-6)Gal(b1-4)GlcNAc(b1-3)Gal(b1-4)GlcNAc(b1-3)Gal(b1-4)GlcNAc(b1-2)Man(a1-3)[Neu5Ac(a2-6)Gal(b1-4)GlcNAc(b1-3)Gal(b1-4)GlcNAc(b1-3)Gal(b1-4)GlcNAc(b1-2)Man(a1-6)]GalNAc
Summary of the method: as §1

[29] = target: Neu5Ac(a2-6)Gal(b1-4)GlcNAc(b1-3)Gal(b1-4)GlcNAc(b1-3)GalNAc
Summary of the method: as §1

[30] = target: Neu5Ac(a2-6)Gal(b1-4)GlcNAc(b1-3)Gal(b1-4)GlcNAc(b1-3)[Neu5Ac(a2-6)Gal(b1-4)GlcNAc(b1-3)Gal(b1-4)GlcNAc(b1-6)]GalNAc
Summary of the method: as §1

[31] = target: Neu5Ac(a2-6)Gal(b1-4)GlcNAc(b1-3)Gal(b1-4)GlcNAc(b1-6)[Gal(b1-3)]GalNAc
Summary of the method: as §1

[32] = target: Neu5Ac(a2-6)Gal(b1-4)GlcNAc(b1-3)Gal(b1-4)[Fuc(a1-3)]GlcNAc(b1-3)Gal(b1-4)[Fuc(a1-3)]GlcNAc
Summary of the method: as §1

[33] = target: Neu5Ac(a2-6)Gal(b1-4)GlcNAc(b1-3)GalNAc
Summary of the method: as §1

[34] = target: Neu5Ac(a2-6)Gal(b1-4)GlcNAc(b1-3)[Neu5Ac(a2-6)Gal(b1-4)GlcNAc(b1-6)]GalNAc
Summary of the method: as §1

[35] = target: Neu5Ac(a2-6)Gal(b1-4)GlcNAc(b1-6)GalNAc
Summary of the method: as §1

[36] = target: Neu5Ac(a2-6)Gal(b1-4)GlcNAc(b1-6)[Gal(b1-3)GlcNAc(b1-3)]Gal(b1-4)Glc
Summary of the method: as §1

B1: FimA-N1 (Actinomyces oris) (protein)
chain: MHHHHHHSSGVDLGTENLYFQSNATETPNYGNIKTDATGSLVIHKHLTGGGKDIGTPTGTAQNADDKGPAVEGVVFTAYPITDINLKDPAGWDTISNLSRTGVPDSACANPAAPTLGAHQFGTPKVSPATTKEGLATITEMPVQAYLVCETTTPGDIVQKAKPFVVTIPHPNTAAGADGQWIYDVNVYPKNEAIDVDKTIQAQK
[1]
  glycan array binding signal (z-score): -0.114
[2]
  glycan array binding signal (z-score): -0.218
[3]
  glycan array binding signal (z-score): -0.295
[4]
  glycan array binding signal (z-score): -0.399
[5]
  glycan array binding signal (z-score): 0.565
Neu5Ac(a2-6)Gal
  glycan array binding signal (z-score): -0.469
[6]
  glycan array binding signal (z-score): -0.454
Neu5Ac(a2-6)Gal(b1-4)Glc
  glycan array binding signal (z-score): -0.022
[7]
  glycan array binding signal (z-score): -0.052
[8]
  glycan array binding signal (z-score): -0.484
[9]
  glycan array binding signal (z-score): -0.135
[10]
  glycan array binding signal (z-score): 6.46
[11]
  glycan array binding signal (z-score): -0.461
[12]
  glycan array binding signal (z-score): -0.234
[13]
  glycan array binding signal (z-score): -0.43
[14]
  glycan array binding signal (z-score): -0.034
[15]
  glycan array binding signal (z-score): 0.01
[16]
  glycan array binding signal (z-score): -0.319
[17]
  glycan array binding signal (z-score): -0.347
[18]
  glycan array binding signal (z-score): -0.197
[19]
  glycan array binding signal (z-score): -0.35
[20]
  glycan array binding signal (z-score): 0.056
[21]
  glycan array binding signal (z-score): 0.07
[22]
  glycan array binding signal (z-score): -0.287
[23]
  glycan array binding signal (z-score): -0.365
[24]
  glycan array binding signal (z-score): -0.02
[25]
  glycan array binding signal (z-score): -0.303
[26]
  glycan array binding signal (z-score): -0.39
[27]
  glycan array binding signal (z-score): -0.267
[28]
  glycan array binding signal (z-score): 0.256
[29]
  glycan array binding signal (z-score): -0.553
[30]
  glycan array binding signal (z-score): -0.041
[31]
  glycan array binding signal (z-score): -0.302
[32]
  glycan array binding signal (z-score): 0.093
[33]
  glycan array binding signal (z-score): 0.296
[34]
  glycan array binding signal (z-score): -0.218
[35]
  glycan array binding signal (z-score): -0.288
[36]
  glycan array binding signal (z-score): -0.313
